According to the supplement of paper PMC8728848:
The list shows a part of the results.

What was measured:
Test in all cases: glycan array binding signal (z-score within array); higher = stronger binding
Details in all cases: glycan notation: IUPAC condensed, linker removed
[1] = biological target: Fuc(a1-3)[Gal(b1-4)]Glc6S
Outline: (§1)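 Glycan array data came from 3228 arrays in the Consortium for Functional Glycomics database, and only arrays with an available protein sequence were kept. Glycan names were put into IUPAC-condensed notation, and columns mapping to the same glycan were averaged. The binding signal is a within-array Z-score, averaged across arrays of one protein sequence run at different concentrations or buffers and across linkers. A negative Z-score can be read as non-binding.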

[2] = biological target: Fuc(a1-3)[Gal(b1-4)]GlcNAc
Outline: as §1

[3] = biological target: Fuc(a1-3)[Gal(b1-4)]GlcNAc(b1-2)Man(a1-3)[Fuc(a1-3)[Gal(b1-4)]GlcNAc(b1-2)Man(a1-6)]Man(b1-4)GlcNAc(b1-4)GlcNAc
Outline: as §1

[4] = biological target: Fuc(a1-3)[Gal(b1-4)]GlcNAc(b1-2)Man(a1-6)[Gal(b1-4)GlcNAc(b1-2)Man(a1-3)]Man(b1-4)GlcNAc(b1-4)GlcNAc
Outline: as §1

[5] = biological target: Fuc(a1-3)[Gal(b1-4)]GlcNAc(b1-3)Gal(b1-3)[Fuc(a1-4)]GlcNAc
Outline: as §1

[6] = biological target: Fuc(a1-3)[Gal(b1-4)]GlcNAc(b1-4)Gal(b1-4)[Fuc(a1-3)]GlcNAc
Outline: as §1

[7] = biological target: Fuc(a1-3)[Gal(b1-4)]GlcNAc(b1-4)Gal(b1-4)[Fuc(a1-3)]GlcNAc(b1-4)Gal(b1-4)[Fuc(a1-3)]GlcNAc
Outline: as §1

[8] = biological target: Fuc(a1-3)[Gal(b1-4)]GlcNAc6S
Outline: as §1

[9] = biological target: Fuc(a1-3)[Gal3S(b1-4)]Glc6S
Outline: as §1

[10] = biological target: Fuc(a1-3)[Gal3S(b1-4)]GlcNAc
Outline: as §1

[11] = biological target: Fuc(a1-3)[Gal3S(b1-4)]GlcNAc6S
Outline: as §1

[12] = biological target: Fuc(a1-3)[GalNAc(b1-4)]GlcNAc
Outline: as §1

[13] = biological target: Fuc(a1-3)[Neu5Ac(a2-3)]Gal(b1-4)GlcNAc(b1-3)GalNAc
Outline: as §1

Fuc(a1-4)GlcNAc = biological target: Fuc(a1-4)GlcNAc
Outline: as §1

Fuc(b1-3)GlcNAc = biological target: Fuc(b1-3)GlcNAc
Outline: as §1

Gal(a1-2)Gal = biological target: Gal(a1-2)Gal
Outline: as §1

Gal(a1-3)Gal = biological target: Gal(a1-3)Gal
Outline: as §1

Gal(a1-3)Gal(b1-3)GlcNAc = biological target: Gal(a1-3)Gal(b1-3)GlcNAc
Outline: as §1

Gal(a1-3)Gal(b1-4)Glc = biological target: Gal(a1-3)Gal(b1-4)Glc
Outline: as §1

Gal(a1-3)Gal(b1-4)GlcNAc = biological target: Gal(a1-3)Gal(b1-4)GlcNAc
Outline: as §1

[14] = biological target: Gal(a1-3)Gal(b1-4)[Fuc(a1-3)]GlcNAc
Outline: as §1

[15] = biological target: Gal(a1-3)Gal(b1-4)[Fuc(a1-3)]GlcNAc(b1-2)Man(a1-3)[Gal(a1-3)Gal(b1-4)[Fuc(a1-3)]GlcNAc(b1-2)Man(a1-6)]Man(b1-4)GlcNAc(b1-4)GlcNAc
Outline: as §1

Gal(a1-3)GalNAc = biological target: Gal(a1-3)GalNAc
Outline: as §1

[16] = biological target: Gal(a1-3)[Gal(a1-4)]Gal(b1-4)GlcNAc
Outline: as §1

Gal(a1-4)Gal(b1-4)Glc = biological target: Gal(a1-4)Gal(b1-4)Glc
Outline: as §1

Gal(a1-4)Gal(b1-4)GlcNAc = biological target: Gal(a1-4)Gal(b1-4)GlcNAc
Outline: as §1

[17] = biological target: Gal(a1-4)Gal(b1-4)GlcNAc(b1-3)Gal(b1-4)Glc
Outline: as §1

Gal(a1-4)GlcNAc = biological target: Gal(a1-4)GlcNAc
Outline: as §1

Gal(a1-6)Glc = biological target: Gal(a1-6)Glc
Outline: as §1

Gal(b1-2)Gal = biological target: Gal(b1-2)Gal
Outline: as §1

Gal(b1-3)Gal = biological target: Gal(b1-3)Gal
Outline: as §1

Gal(b1-3)Gal(b1-4)GlcNAc = biological target: Gal(b1-3)Gal(b1-4)GlcNAc
Outline: as §1

[18] = biological target: Gal(b1-3)Gal(b1-4)GlcNAc(b1-2)Man(a1-3)[Gal(b1-3)Gal(b1-4)GlcNAc(b1-2)Man(a1-6)]Man(b1-4)GlcNAc(b1-4)GlcNAc
Outline: as §1

Gal(b1-3)GalNAc = biological target: Gal(b1-3)GalNAc
Outline: as §1

[19] = biological target: Gal(b1-3)GalNAc(a1-3)[Fuc(a1-2)]Gal(b1-4)Glc
Outline: as §1

[20] = biological target: Gal(b1-3)GalNAc(a1-3)[Fuc(a1-2)]Gal(b1-4)GlcNAc
Outline: as §1

[21] = biological target: Gal(b1-3)GalNAc(b1-3)Gal(a1-4)Gal(b1-4)Glc
Outline: as §1

[22] = biological target: Gal(b1-3)GalNAc(b1-4)Gal(b1-4)Glc
Outline: as §1

[23] = biological target: Gal(b1-3)GalNAc(b1-4)[Neu5Ac(a2-3)]Gal(b1-4)Glc
Outline: as §1

Gal(b1-3)GlcNAc = biological target: Gal(b1-3)GlcNAc
Outline: as §1

[24] = biological target: Gal(b1-3)GlcNAc(b1-2)Man(a1-3)[Gal(b1-3)GlcNAc(b1-2)Man(a1-6)]Man(b1-4)GlcNAc(b1-4)GlcNAc
Outline: as §1

[25] = biological target: Gal(b1-3)GlcNAc(b1-2)Man(a1-3)[Gal(b1-3)GlcNAc(b1-2)Man(a1-6)]Man(b1-4)GlcNAc(b1-4)[Fuc(a1-6)]GlcNAc
Outline: as §1

[26] = biological target: Gal(b1-3)GlcNAc(b1-3)Gal(b1-3)GlcNAc
Outline: as §1

[27] = biological target: Gal(b1-3)GlcNAc(b1-3)Gal(b1-4)Glc
Outline: as §1

[28] = biological target: Gal(b1-3)GlcNAc(b1-3)Gal(b1-4)GlcNAc
Outline: as §1

B1: MRCL (Homo sapiens), NP_872425.1 (protein)
chain: ATKVHFPFHTCDLRIDGDCFMVSSEADTYYRARMKCQRKGGVLAQIKSQKVQDILAFYLGRLETTNEVTDSDFETRNFWIGLTYKTAKDSFRWATGEHQAFTSFAFGQPDNHGLVWLSAAMGFGNCVELQASAAFNWNNQRCKTRNRYICQFAQEHISRWGPGS
glycan array binding signal (z-score) [1]: -0.024
glycan array binding signal (z-score) [2]: -0.302
glycan array binding signal (z-score) [3]: -0.635
glycan array binding signal (z-score) [4]: -0.656
glycan array binding signal (z-score) [5]: -0.385
glycan array binding signal (z-score) [6]: -0.365
glycan array binding signal (z-score) [7]: 0.527
glycan array binding signal (z-score) [8]: -0.592
glycan array binding signal (z-score) [9]: 0.152
glycan array binding signal (z-score) [10]: -0.598
glycan array binding signal (z-score) [11]: 0.56
glycan array binding signal (z-score) [12]: -0.706
glycan array binding signal (z-score) [13]: 1.51
glycan array binding signal (z-score) (Fuc(a1-4)GlcNAc): -0.459
glycan array binding signal (z-score) (Fuc(b1-3)GlcNAc): -0.532
glycan array binding signal (z-score) (Gal(a1-2)Gal): 0.689
glycan array binding signal (z-score) (Gal(a1-3)Gal): -0.533
glycan array binding signal (z-score) (Gal(a1-3)Gal(b1-3)GlcNAc): -0.68
glycan array binding signal (z-score) (Gal(a1-3)Gal(b1-4)Glc): -0.723
glycan array binding signal (z-score) (Gal(a1-3)Gal(b1-4)GlcNAc): 0.565
glycan array binding signal (z-score) [14]: -0.578
glycan array binding signal (z-score) [15]: 2.11
glycan array binding signal (z-score) (Gal(a1-3)GalNAc): -0.066
glycan array binding signal (z-score) [16]: 0.889
glycan array binding signal (z-score) (Gal(a1-4)Gal(b1-4)Glc): 0.266
glycan array binding signal (z-score) (Gal(a1-4)Gal(b1-4)GlcNAc): 0.645
glycan array binding signal (z-score) [17]: -0.653
glycan array binding signal (z-score) (Gal(a1-4)GlcNAc): -0.585
glycan array binding signal (z-score) (Gal(a1-6)Glc): 0.048
glycan array binding signal (z-score) (Gal(b1-2)Gal): -0.726
glycan array binding signal (z-score) (Gal(b1-3)Gal): 0.172
glycan array binding signal (z-score) (Gal(b1-3)Gal(b1-4)GlcNAc): 0.514
glycan array binding signal (z-score) [18]: -0.51
glycan array binding signal (z-score) (Gal(b1-3)GalNAc): -0.169
glycan array binding signal (z-score) [19]: 2.71
glycan array binding signal (z-score) [20]: -0.525
glycan array binding signal (z-score) [21]: -0.687
glycan array binding signal (z-score) [22]: -0.601
glycan array binding signal (z-score) [23]: 0.141
glycan array binding signal (z-score) (Gal(b1-3)GlcNAc): 1.16
glycan array binding signal (z-score) [24]: -0.381
glycan array binding signal (z-score) [25]: 0.784
glycan array binding signal (z-score) [26]: -0.189
glycan array binding signal (z-score) [27]: -0.232
glycan array binding signal (z-score) [28]: -0.501
